Laboratory results: patent publication US11479587B2, “Cationic intrinsically disordered antimicrobial peptides” (priority 2016, dated 2022)
Converted amounts (≈) assume the structure as drawn. Part of at least one peptide drawing is inferred or uncertain, most often the ends. Some compounds share one wording; it may come from a single statement. Residues, ends and D or L forms follow the SMILES beside them.

How the values were obtained:
S. aureus ATCC 6538 = assay: CFU-assay, S. aureus-cidal activity; format: cell-based, Staphylococcus aureus; settings: for S. aureus MBC90 / S. aureus MBC100: pH 5.5
Protocol: Thus, within the present invention, the antimicrobial activity is generally measured in nutrient deficient 10 mM sodium phosphate buffer pH 5.5, containing 0.25% glucose, using the CFU-assay according to Steinberg and Lehrer, 1997 (supra), unless otherwise indicated. The CFU-assay allows determination of the minimal bactericidal concentration (MBC, e.g., MBC90 and MBC100; i.e. the concentration of compound required to achieve a specified reduction in bacterial cell number (microbial death or killing)).
Various peptides corresponding to repeat domains of hornerin (HR 1-11: HRNR 2606-2628; HR 1-17: HRNR 2656-2684 and HR 1-18: HRNR 2656-2677) were tested for P. aeruginosa ATCC 10145-cidal activity in 10 mM Na-phosphate buffer pH 5.5, containing 0.25% glucose by counting the numbers of colonies of surviving bacteria at serial, twofold dilutions from 300 μg/ml down to 19 ng/ml of each peptide (CFU-assay; Steinberg and Lehrer, 1997, Methods Mol. Biol. 78, 169-186).
Staphylococcus aureus is a major skin pathogen, which causes skin infections, in particular in atopic dermatitis. The sensitivity of S. aureus ATCC 6538 towards several CIDAMPs was assessed using the CFU-assay as above (see Example 1). HR 1-18, which lacks S. aureus.-bactericidal activity, is converted in a S. aureus-cidal peptide, when all His are replaced by Arg (HR 1-18 4H-4R; see Table 13 and FIG. 9). […] HR 1-18 4H-4R is rich in Ser and Arg and contains a single Leu residue. When this single Leu was replaced by Gly in S. aureus-cidal HR 1-18 4H-4R (forming HR 1-18 4H-4R/L-G), S. aureus-cidal activity was abolished at both pH 7.0 and pH 5.5 (see Table 13 and FIG. 9).

[1] = system: Streptococcus pyogenes ATCC 12344; assay: CFU-assay, antimicrobial activity spectrum; format: cell-based
[2] = system: Propionibacterium acnes ATCC 6919; assay: CFU-assay, antimicrobial activity spectrum; format: cell-based; settings: pH 7.3, 1% TSB
[3] = system: Burkholderia cepacia ATCC 25416; assay: CFU-assay, Burkholderia cepacia-cidal activity; format: cell-based
[4] = system: Prevotella oralis ATCC 33321; assay: CFU-assay, antimicrobial activity spectrum; format: cell-based; settings: pH 7.3, 1% TSB
[5] = system: Streptococcus pneumoniae ATCC 33400; assay: CFU-assay, antimicrobial activity spectrum; format: cell-based; settings: pH 7.3, 1% TSB
P. aeruginosa ATCC 10145 = assay: CFU-assay, P. aeruginosa-cidal activity; format: cell-based, Pseudomonas aeruginosa; settings: for P. aeruginosa MBC90 / P. aeruginosa MBC100: pH 5.5
[6] = system: methicillin-resistant S. aureus strain (ATCC 43300); format: cell-based, Staphylococcus aureus; settings: Mueller-Hinton medium, 37° C., 18 h, resazurin
Protocol: Furthermore, sensitivity of a methicillin-resistant S. aureus strain (ATCC 43300) was investigated for palmitoylated CIDAMPs in a microtiter plate screening model, with incubation in Mueller-Hinton medium at 37° C. for 18 h using resazurin as a marker for cell viability.
(§1) A sample of each culture was then diluted 40-fold in fresh broth and incubated at 37° C. for 1.5-3 h. […] All the plates were covered and incubated at 37° C. for 18 h.
(§2) Inhibition of bacterial growth was determined using resazurin as a marker for cell viability. Resazurin was added to each well, at 0.001% final concentration, and plates incubated at 37° C. for 2 h. Fluorescence intensity was measured, using F (top read), ex 560/10 nm, em 590/10 nm, using a Tecan M1000 Pro monochromator plate reader.

[7] = system: multidrug-resistant K. pneumoniae ATCC 700603; format: cell-based, Klebsiella pneumoniae; settings: Mueller-Hinton medium, pH 7.4, 18 h incubation
Protocol: The Gram-negative opportunistic pathogen K. pneumoniae is responsible for a spectrum of community-acquired and nosocomial infections and typically infects patients with indwelling medical devices, on which this microorganism is able to grow as a biofilm.
as §1, §2

C. neoformans = settings: standard conditions at pH 7.4; activity at concentration <32 pg/ml
[8] = pH 5.5, 0.25% glucose, listed as palmitoyl-HR 1-18 HR

CCCCCCCCCCCCCC(=O)NCC(=O)N[C@@H](CCCNC(=N)N)C(=O)N[C@@H](Cc1c[nH]cn1)C(=O)NCC(=O)N[C@@H](CO)C(=O)NCC(=O)N[C@@H](CC(C)C)C(=O)NCC(=O)N[C@@H](Cc1c[nH]cn1)C(=O)N[C@@H](CO)C(=O)N[C@@H](CO)C(=O)N[C@@H](CO)C(=O)N[C@@H](Cc1c[nH]cn1)C(=O)NCC(=O)N[C@@H](CCC(N)=O)C(=O)N[C@@H](Cc1c[nH]cn1)C(=O)NCC(=O)N[C@@H](CO)C(=O)NCC(=O)N[C@@H](CO)C(=O)NCC(=O)N[C@@H](CCCNC(=N)N)C(=O)O [Myr-HR 1-18] (HELM PEPTIDE1{[CCCCCCCCCCCCCC(=O)[*:2]].G.R.H.G.S.G.L.G.H.S.S.S.H.G.Q.H.G.S.G.S.G.R}$$$$V2.0)
MBC90 (S. aureus ATCC 6538; pH 5.5, 0.25% glucose): 9.38 µg/mL (≈ 4.06 µM) | MBC100 (S. aureus ATCC 6538; pH 5.5, 0.25% glucose): 75 µg/mL (≈ 32.5 µM) | MBC90 (S. aureus ATCC 6538; pH 7.0, 0.25% glucose): 18.75 µg/mL (≈ 8.12 µM) | MBC100 (S. aureus ATCC 6538; pH 7.0, 0.25% glucose): 75 µg/mL (≈ 32.5 µM) | MBC90 (S. aureus ATCC 6538; pH 7.3, 1% TSB): 18.75 µg/mL (≈ 8.12 µM) | MBC100 (S. aureus ATCC 6538; pH 7.3, 1% TSB): 75 µg/mL (≈ 32.5 µM) | MBC90 ([1]; pH 7.3, 1% TSB): 18.75 µg/mL (≈ 8.12 µM) | MBC100 ([1]; pH 7.3, 1% TSB): 18.75 µg/mL (≈ 8.12 µM) | MBC90 [2]: 9.38 µg/mL (≈ 4.06 µM) | MBC100 [2]: 18.75 µg/mL (≈ 8.12 µM) | MBC90 ([3]; pH 5.5, 0.25% glucose): >300 µg/mL | MBC100 ([3]; pH 5.5, 0.25% glucose): >300 µg/mL | MBC90 [4]: 300 µg/mL (≈ 130 µM) | MBC100 [4]: >300 µg/mL | MBC90 [5]: 18.75 µg/mL (≈ 8.12 µM) | MBC100 [5]: 37.5 µg/mL (≈ 16.2 µM) | MBC90 (P. aeruginosa ATCC 10145; pH 5.5, 0.25% glucose): 0.075 µg/mL (≈ 0.0325 µM) | MBC100 (P. aeruginosa ATCC 10145; pH 5.5, 0.25% glucose): 0.3 µg/mL (≈ 0.13 µM) | MBC90 (P. aeruginosa ATCC 10145; pH 7.3, 1% TSB): 9.38 µg/mL (≈ 4.06 µM) | MBC100 (P. aeruginosa ATCC 10145; pH 7.3, 1% TSB): 18.75 µg/mL (≈ 8.12 µM)

CCCCCCCCCCCCCCCC(=O)NCC(=O)N[C@@H](CCCNC(=N)N)C(=O)N[C@@H](CCCNC(=N)N)C(=O)NCC(=O)N[C@@H](CO)C(=O)NCC(=O)N[C@@H](CC(C)C)C(=O)NCC(=O)N[C@@H](CCCNC(=N)N)C(=O)N[C@@H](CO)C(=O)N[C@@H](CO)C(=O)N[C@@H](CO)C(=O)N[C@@H](CCCNC(=N)N)C(=O)NCC(=O)N[C@@H](CCC(N)=O)C(=O)N[C@@H](CCCNC(=N)N)C(=O)NCC(=O)N[C@@H](CO)C(=O)NCC(=O)N[C@@H](CO)C(=O)NCC(=O)N[C@@H](CCCNC(=N)N)C(=O)O [Pal-HR 1-18 HR] (HELM PEPTIDE1{[CCCCCCCCCCCCCCCC(=O)[*:2]].G.R.R.G.S.G.L.G.R.S.S.S.R.G.Q.R.G.S.G.S.G.R}$$$$V2.0)
killing of MRSA strain (in words) [6]: able to kill this MRSA-strain at low μg/ml or high ng/ml concentration | S. aureus MBC90 (S. aureus ATCC 6538): 0.12 µM | S. aureus MBC100 (S. aureus ATCC 6538): 1.94 µM | MBC90 (S. aureus ATCC 6538; pH 5.5, 0.25% glucose): 0.3 µg/mL (≈ 0.124 µM) | MBC100 (S. aureus ATCC 6538; pH 5.5, 0.25% glucose): 4.7 µg/mL (≈ 1.95 µM) | MBC90 (S. aureus ATCC 6538; pH 7.3, 1% TSB): 1.18 µg/mL (≈ 0.489 µM) | MBC100 (S. aureus ATCC 6538; pH 7.3, 1% TSB): 9.38 µg/mL (≈ 3.89 µM) | MBC90 ([1]; pH 7.3, 0.25% glucose): 0.15 µg/mL (≈ 0.0621 µM) | MBC100 ([1]; pH 7.3, 0.25% glucose): 0.3 µg/mL (≈ 0.124 µM) | MBC90 [2]: 1.18 µg/mL (≈ 0.489 µM) | MBC100 [2]: 4.7 µg/mL (≈ 1.95 µM) | MBC90 ([3]; pH 7.3, 0.25% glucose): 75 µg/mL (≈ 31.1 µM) | MBC100 ([3]; pH 7.3, 0.25% glucose): 300 µg/mL (≈ 124 µM) | MBC90 ([3]; pH 7.3, 1% TSB): 75 µg/mL (≈ 31.1 µM) | MBC100 ([3]; pH 7.3, 1% TSB): 150 µg/mL (≈ 62.1 µM) | MBC90 [4]: 37.5 µg/mL (≈ 15.5 µM) | MBC100 [4]: 75 µg/mL (≈ 31.1 µM) | P. aeruginosa MBC90 (P. aeruginosa ATCC 10145): 0.016 µM | P. aeruginosa MBC100 (P. aeruginosa ATCC 10145): 0.252 µM | MBC90 (P. aeruginosa ATCC 10145; [8]): 0.038 µg/mL (≈ 0.0157 µM) | MBC100 (P. aeruginosa ATCC 10145; [8]): 0.59 µg/mL (≈ 0.244 µM) | MBC90 (P. aeruginosa ATCC 10145; pH 7.3, 1% TSB): 1.18 µg/mL (≈ 0.489 µM) | MBC100 (P. aeruginosa ATCC 10145; pH 7.3, 1% TSB): 4.7 µg/mL (≈ 1.95 µM) | concentration able to eradicate the strain [7]: 32 µg/mL | Antifungal activity, C. neoformans ATCC 208821 (C. neoformans): A (A-active)

CCCCCCCCCCCCCCCC(=O)NCC(=O)N[C@@H](CCCNC(=N)N)C(=O)N[C@@H](CCCNC(=N)N)C(=O)NCC(=O)NCC(=O)N[C@@H](CCCNC(=N)N)C(=O)NCC(=O)NCC(=O)N[C@@H](CCCNC(=N)N)C(=O)O [Pal-GR9] (HELM PEPTIDE1{[CCCCCCCCCCCCCCCC(=O)[*:2]].G.R.R.G.G.R.G.G.R}$$$$V2.0)
S. aureus MBC90 (S. aureus ATCC 6538): 1.00 µM | S. aureus MBC100 (S. aureus ATCC 6538): 2.35 µM | MBC90 (S. aureus ATCC 6538; pH 5.5, 0.25% glucose): 1.18 µg/mL (≈ 1.01 µM) | MBC100 (S. aureus ATCC 6538; pH 5.5, 0.25% glucose): 300 µg/mL (≈ 257 µM) | MBC99 (S. aureus ATCC 6538; pH 5.5, 0.25% glucose, kills 99.0% of inoculum): 4.7 µg/mL (≈ 4.03 µM) | P. aeruginosa MBC90 (P. aeruginosa ATCC 10145): 0.064 µM | P. aeruginosa MBC100 (P. aeruginosa ATCC 10145): 1.01 µM | MBC90 (P. aeruginosa ATCC 10145; pH 5.5, 0.25% glucose): 0.038 µg/mL (≈ 0.0326 µM) | MBC100 (P. aeruginosa ATCC 10145; pH 5.5, 0.25% glucose): 0.59 µg/mL (≈ 0.506 µM) | concentration able to eradicate the strain [7]: 32 µg/mL | Antifungal activity, C. neoformans ATCC 208821 (C. neoformans): A (A-active)
